Consider 54 molecules from ChEMBL document CHEMBL4888484, “Replenishing the malaria drug discovery pipeline: Screening and hit evaluation of the MMV Hit Generation Library 1 (HGL1) against asexual blood stage Plasmodium falciparum ,using a nano luciferase reporter read-out” (2022).

In all, about 150,000 compounds went through this assay and about 540 (0.36%) showed an effect of 50% or more. The list shows a part of the results.

The subject of this assay is Plasmodium falciparum. Nature of the assay: Primary screen in NF54 nanoGlo assay, in single point, at 2uM, 72h; a lower Z score goes with more inhibition. The format is functional, Erythrocyte. The conditions noted are these: timepoint 72 hour.
Turning to `OCCNc1nc(Nc2ccc(F)cc2)c2nn[nH]c2n1`, the “% Inhibition” value is -14% and the Z score came to 2.2.

Regarding `CC(C)(CN1CCOCC1)CN1CCc2nocc2C1`, the “% Inhibition” value is listed as -2% and the Z score came to 0.26.

In the case of `Cn1c(=O)n2nnnc2c2ccccc21`, the “% Inhibition” value was -6% and the Z score is 0.89.

On to `O=C(Cn1nc(-c2ccncc2)oc1=S)c1ccc(Cl)cc1`, for which the “% Inhibition” value is -2% and the Z score is 0.37.

Turning to `CCc1nc(-c2cc(NC(=O)c3ccc(C)cc3)c(C)s2)no1`, the “% Inhibition” value is -4% and the Z score is recorded as 0.38.

Regarding `Cc1ccc(CCNC(=O)CCC(=O)Nc2c(F)cccc2F)o1`, the “% Inhibition” value is -14% and the Z score is 2.57.

Consider `CC(=O)NC1CCC(Nc2ccc3c(c2)OC(C)(C)O3)CC1` (stereo not drawn), for which the “% Inhibition” value is listed as -7% and the Z score amounted to 0.86.

In the case of `O=C(NCCc1ccco1)[C@@H]1CCN(c2ccccc2)C1=O`, the “% Inhibition” value was -10% and the Z score is on record as 0.99.

In the case of `Cc1nn(C)c(Cl)c1CN(CCN1CCCCC1)C[C@H]1CCCN(C2CCCC2)C1`, the “% Inhibition” value is recorded as -10% and the Z score amounted to 1.38.

With `C[C@@H]1CN(Cc2nnnn2CC(=O)NCc2cccc(Cl)c2)C[C@H](C)O1`, the “% Inhibition” value is -11% and the Z score stood at 0.99.

`O=C(Nc1cccc2c1CCCC2)c1cccc2ccccc12`: the “% Inhibition” value is -15% and the Z score came to 2.76.

Regarding `C[C@@H]1CN(CC(=O)NCc2csc(N3CCCC3)n2)C[C@H](C)O1`, the “% Inhibition” value is listed as -10% and the Z score stood at 1.85.

As to `COCC(C)(C)C(=O)NCc1cccc2nsnc12`, the “% Inhibition” value is listed as -1% and the Z score is 0.13.

For the molecule `C[C@@H](Cc1ccco1)NC(=O)c1cc(-c2cccc(Cl)c2)[nH]n1`, the “% Inhibition” value is on record as -5% and the Z score came to 0.8.

Regarding `O=C(c1ccc(Cl)cn1)N(Cc1nccn1C(F)F)C1CC1`, the “% Inhibition” value is recorded as 0% and the Z score was found to be 0.

As to `CC1CCCN(C(=O)C(C)S(C)(=O)=O)C1` (stereo not drawn), the “% Inhibition” value was -8% and the Z score was 1.33.

Regarding `O=C(N[C@H]1C[C@@H](c2cc(=O)[nH]c(C3CC3)n2)C1)c1cc(CO)ccn1`, the “% Inhibition” value is -12% and the Z score came out at 2.2.

`CC(C)(C)C(=O)N1CCc2ccc(OCc3ccc(C(=O)Nc4ccc(F)cc4)o3)cc2[C@@H]1c1cccc(F)c1`: the “% Inhibition” value is reported as -2% and the Z score was determined as 0.22.

On to `Cc1ccc(N2C(=O)C3C4C=CC(C4=C4CCCCC4)C3C2=O)cc1Cl` (stereo not drawn), for which the “% Inhibition” value is -11% and the Z score amounted to 1.34.

As for `O=C(NC1CCCCCC1C(=O)O)c1cccs1` (stereo not drawn), the “% Inhibition” value was -18% and the Z score is recorded as 2.48.

For `CCn1c(CO)nnc1[C@H]1C[C@H](Nc2nc(C)nc3ccsc23)C1`, the “% Inhibition” value is recorded as -8% and the Z score turned out to be 1.25.

As to `Cc1cc(C(=O)N2CCNC[C@H]2C(F)F)oc1C`, the “% Inhibition” value was -7% and the Z score amounted to 1.2.

Regarding `Cn1ccc2cccc(S(=O)(=O)NCCCCC(N)=O)c21`, the “% Inhibition” value is -4% and the Z score is recorded as 0.79.

As for `Cn1nnc2cc(C(=O)NCC3(CN4CCOCC4)CCCCC3)cnc21`, the “% Inhibition” value is on record as -3% and the Z score stood at 0.53.

As to `N#Cc1cc(NC2CCCC2O)nc2ccccc12` (stereo not drawn), the “% Inhibition” value is given as -8% and the Z score is reported as 0.76.

Turning to `Cc1cccc(Cn2nc(C)c3[nH]c(C4CCOCC4)nc32)c1`, the “% Inhibition” value is -14% and the Z score was found to be 1.85.

As for `O=C(CNc1ccc(Br)cc1Cl)NC(=O)NC1CCCC1`, the “% Inhibition” value was -7% and the Z score amounted to 0.96.

With `CCOC(=O)c1ccc2c(c1)N(Cc1ccnn1CC)CCO2`, the “% Inhibition” value is reported as -4% and the Z score is reported as 0.61.

As for `CC(C)C(=O)N1CCC([C@@H]2CN(CCCc3ccccc3)C[C@H]2CO)CC1`, the “% Inhibition” value is on record as -18% and the Z score came out at 2.16.

For `Cc1cc(C)c(S(=O)(=O)Nc2ccc(N3CCNCC3)c(C(=O)N3CCCCCC3)c2)cc1C`, the “% Inhibition” value is -12% and the Z score was 1.35.

With `Cn1nc(CN(C2CCCC2)S(=O)(=O)c2cccnc2)c2c1CCC2`, the “% Inhibition” value is recorded as -20% and the Z score worked out at 3.34.

With `Cc1cc(C(=O)N[C@H]2CCN(Cc3c(C)noc3C)C[C@@H]2O)nc(C)n1`, the “% Inhibition” value is listed as -25% and the Z score is 2.72.

Regarding `O=C(NC1CC1)N1C2CCC1CC(Oc1ccncc1)C2` (stereo not drawn), the “% Inhibition” value is reported as -21% and the Z score is recorded as 2.43.

Take `Cn1cc(C(=O)N2CC[C@H](O)C23CCCC3)c2ccccc21`: the “% Inhibition” value is on record as -13% and the Z score amounted to 1.87.

As for `O=C(NCc1ccco1)C1CCC(N2C(=O)c3ccccc3C2=O)CC1` (stereo not drawn), the “% Inhibition” value is 9% and the Z score is recorded as -1.15.

Take `CC(C)c1ccc2cc(C(=O)N3CCN4C(=O)CN(C)C(=O)[C@@H]4C3)[nH]c2c1`: the “% Inhibition” value came out at 0% and the Z score was -0.03.

In the case of `CCOC(=O)[C@@H](NC(=O)Cc1c(C)n[nH]c1C)C1CCCCCC1`, the “% Inhibition” value is reported as -12% and the Z score turned out to be 1.89.

With `CC(C)(C)c1nc(C(=O)N[C@@H](CCF)C(=O)O)cs1`, the “% Inhibition” value is reported as -14% and the Z score was determined as 1.97.

Consider `Cc1cc(O)c([C@H](c2cccnc2)N2CCN(C)CC2)c(=O)n1Cc1ccccc1`, for which the “% Inhibition” value is -7% and the Z score turned out to be 1.01.

In the case of `CN(C)CC(C)(C)CNc1nc2c(c(=O)[nH]1)Cc1ccccc1OC2`, the “% Inhibition” value worked out at 9% and the Z score is -1.69.

Turning to `O=C(C[C@H]1COCCN1C(=O)CCn1cc(Cl)cn1)NCc1ccncc1`, the “% Inhibition” value was -2% and the Z score was found to be 0.33.

`Cc1ccc(C)n1-c1ccc2snnc2c1`: the “% Inhibition” value is listed as 6% and the Z score is -0.63.

On to `CC(=O)NCc1cc2n(n1)CCN(c1cc(OC(C)C)nc(N)n1)C2`, for which the “% Inhibition” value was -10% and the Z score turned out to be 1.1.

In the case of `Oc1ccc(Cl)c(CN2CCOC[C@@H](O)C2)c1Cl`, the “% Inhibition” value is listed as -8% and the Z score came out at 1.2.

As for `Cc1cc(C)c2ccc(C(=O)N3CCN(c4ncc[nH]c4=O)CC3)cc2n1`, the “% Inhibition” value is -3% and the Z score is given as 0.43.

As for `O=C(c1cccc(C#Cc2ccccc2)c1)N1CCN(C(c2ccccc2)c2ccccc2)CC1`, the “% Inhibition” value is -8% and the Z score is given as 1.42.

With `Cc1cnc(CN2CCN([C@H](C#N)c3ccccc3)CC2)cn1`, the “% Inhibition” value is -1% and the Z score is recorded as 0.1.

Regarding `Cc1ccc(CN2C(=O)N(c3cccc(F)c3)c3ncccc3S2(=O)=O)cc1`, the “% Inhibition” value is -14% and the Z score is 1.4.

In the case of `CCCCNC(=O)[C@@H]1CCCC[C@@H]1C(=O)Nc1cc(C)c2nc(N)sc2c1`, the “% Inhibition” value worked out at 13% and the Z score is reported as -2.4.

Take `COCCN(Cc1ccsc1)S(=O)(=O)c1cccc(C(=O)N2CCC2)c1`: the “% Inhibition” value was -7% and the Z score stood at 1.18.

As for `O=C(O)C1(Oc2ccc3c(c2)CCC3)CCN(c2ncccn2)CC1`, the “% Inhibition” value is reported as 1% and the Z score is -0.17.

Turning to `Cc1cc(C)n2ncc(-c3noc(C4CCCCN4C(=O)C4CC4C)n3)c2n1` (stereo not drawn), the “% Inhibition” value is on record as 5% and the Z score is -0.59.

With `CCCN1C[C@@H](NC(=O)c2ccccc2-c2cccc(C)c2)CC1=O`, the “% Inhibition” value amounted to 8% and the Z score is listed as -0.85.

Regarding `N#Cc1ccc(N2CCN(Cc3c[nH]cn3)C[C@H](O)C2)nc1`, the “% Inhibition” value is -8% and the Z score is recorded as 1.38.

Broadly, the % Inhibition is the relative decrease from the control value, in per cent.
